Some of these densities may be calculated back from excess volumes.
Experiment: xn = mol fraction of the nth substance listed
Conditions: 101 kPa

ClCCl + CCCC[n+]1cccc(C)c1.F[B-](F)(F)F
Conditions	mass density [kg/m3]
298.15 K, x1 = 1	1316.2

CCCC[n+]1ccc(C)cc1.F[B-](F)(F)F + ClCCCCl
x2 = 0
Conditions	mass density [kg/m3]
298.15 K	1183.1
318.15 K	1169.3

ClCCl + CCCC[n+]1ccc(C)cc1.F[B-](F)(F)F
Conditions	mass density [kg/m3]
298.15 K, x1 = 1	1316.2

ClCCCl + CCCC[n+]1cccc(C)c1.F[B-](F)(F)F
x1 = 1
Conditions	mass density [kg/m3]
298.15 K	1245.4
318.15 K	1216.2

ClCCCCCl + CCCC[n+]1ccccc1C.F[B-](F)(F)F
Conditions	mass density [kg/m3]
298.15 K, x1 = 1	1133.2

ClCCCCl + CCCC[n+]1ccc(C)cc1.F[B-](F)(F)F
mass density [kg/m3]
Conditions	298.15 K	318.15 K
x1 = 0.1183	1183.3	–
x1 = 0.3869	1184.6	–
x1 = 0.3919	–	1169.4
x1 = 0.4996	–	1169.4
x1 = 0.5908	1185.8	–
x1 = 0.5953	–	1169.1
x1 = 0.6425	1186.1	–
x1 = 0.699	–	1168.3
x1 = 0.7003	1186.4	–
x1 = 0.7414	1186.4	–
x1 = 0.7475	–	1167.6
x1 = 0.7857	1186.3	–
x1 = 0.7931	–	1166.8
x1 = 0.835	–	1165.7
x1 = 0.8434	1185.8	–
x1 = 0.9072	1184.8	–
x1 = 0.9099	–	1162.7
x1 = 0.9435	–	1160.7
x1 = 0.9735	–	1158.4
x1 = 1	1180.1	1155

CCCC[n+]1ccccc1C.F[B-](F)(F)F + ClCCCCl
Conditions	mass density [kg/m3]
298.15 K, x2 = 0.1157	1201.5
298.15 K, x2 = 0.202	1201.4
298.15 K, x2 = 0.3057	1201
298.15 K, x2 = 0.501	1199.9
298.15 K, x2 = 0.6111	1198.6
298.15 K, x2 = 0.7037	1196.7
298.15 K, x2 = 0.801	1193.5
298.15 K, x2 = 0.9475	1185.8
298.15 K, x2 = 0.9715	1183.6
318.15 K, x2 = 0	1188.3
318.15 K, x2 = 0.1571	1187.3
318.15 K, x2 = 0.2096	1187.1
318.15 K, x2 = 0.2596	1186.7
318.15 K, x2 = 0.3112	1186.4
318.15 K, x2 = 0.367	1185.9
318.15 K, x2 = 0.5131	1183.8
318.15 K, x2 = 0.6075	1181.8
318.15 K, x2 = 0.7082	1178.6
318.15 K, x2 = 0.8074	1173.8
318.15 K, x2 = 0.8671	1169.7
318.15 K, x2 = 0.9046	1166.9
318.15 K, x2 = 0.9426	1163.3
318.15 K, x2 = 0.9731	1159.5

ClCCCCCl + CCCC[n+]1cccc(C)c1.F[B-](F)(F)F
Conditions	mass density [kg/m3]
298.15 K, x1 = 0.1041	1181
298.15 K, x1 = 0.196	1179
298.15 K, x1 = 0.3006	1176.3
298.15 K, x1 = 0.4043	1173.2
298.15 K, x1 = 0.5001	1169.8
298.15 K, x1 = 0.6067	1165.2
298.15 K, x1 = 1	1133.2
318.15 K, x1 = 0.1034	1166.9
318.15 K, x1 = 0.1945	1164.6
318.15 K, x1 = 0.3033	1161.6
318.15 K, x1 = 0.4115	1157.8
318.15 K, x1 = 0.5025	1154
318.15 K, x1 = 0.6685	1144.9

ClCCl + CCCC[n+]1ccccc1C.F[B-](F)(F)F
Conditions	mass density [kg/m3]
298.15 K, x1 = 1	1316.2

CCCC[n+]1cccc(C)c1.F[B-](F)(F)F + ClCCl
298.15 K
Conditions	mass density [kg/m3]
x1 = 0.0181	1313.6
x2 = 0	1183.2
x2 = 0.1405	1191.5
x2 = 0.2096	1196.1
x2 = 0.285	1201.8
x2 = 0.327	1205.5
x2 = 0.4127	1213.6
x2 = 0.502	1223.6
x2 = 0.6059	1237
x2 = 0.702	1252.7
x2 = 0.7772	1266.9
x2 = 0.8168	1275.1
x2 = 0.8493	1282.4
x2 = 0.8816	1290.3
x2 = 0.9052	1295.9
x2 = 0.9395	1304.1
x2 = 0.9628	1309.5

CCCC[n+]1ccccc1C.F[B-](F)(F)F + ClCCCl
mass density [kg/m3]
Conditions	298.15 K	318.15 K
x2 = 0	1201.7	1188.3
x2 = 0.1068	–	1191.1
x2 = 0.1113	1205	–
x2 = 0.1687	–	1193
x2 = 0.1822	1207.5	–
x2 = 0.2072	–	1194.3
x2 = 0.2675	1210.8	–
x2 = 0.2808	–	1196.7
x2 = 0.3097	–	1197.8
x2 = 0.377	1215.6	–
x2 = 0.4017	–	1201.1
x2 = 0.4688	1220.1	–
x2 = 0.5102	–	1205.7
x2 = 0.5619	1225.1	–
x2 = 0.6124	–	1210.4
x2 = 0.6751	1231.8	–
x2 = 0.7057	–	1214.7
x2 = 0.778	1238.7	–
x2 = 0.8054	–	1219.3
x2 = 0.8606	–	1220.7
x2 = 0.8818	1245.5	–
x2 = 0.9043	–	1222
x2 = 0.9075	1246.7	–
x2 = 0.9231	–	1222.2
x2 = 0.942	1247.9	–
x2 = 0.9634	1248.1	–

CCCC[n+]1ccc(C)cc1.F[B-](F)(F)F + ClCCCCCl
x2 = 0
Conditions	mass density [kg/m3]
298.15 K	1183.1
318.15 K	1169.3

ClCCCCCl + CCCC[n+]1ccc(C)cc1.F[B-](F)(F)F
mass density [kg/m3]
Conditions	298.15 K	318.15 K
x1 = 0.1056	–	1166.5
x1 = 0.1914	1178.5	–
x1 = 0.1956	–	1164.2
x1 = 0.3009	–	1161
x1 = 0.3161	1175.2	–
x1 = 0.3978	–	1157.4
x1 = 0.4114	1172.2	–
x1 = 0.5017	–	1153.2
x1 = 0.5022	1168.7	–
x1 = 0.6171	–	1147.2
x1 = 0.6684	–	1144.2
x1 = 0.7229	–	1140.6
x1 = 1	1133.2	1111.2

CCCC[n+]1ccccc1C.F[B-](F)(F)F + ClCCl
298.15 K
Conditions	mass density [kg/m3]
x2 = 0	1201.7
x2 = 0.0314	1203.6
x2 = 0.1097	1207.8
x2 = 0.162	1210.8
x2 = 0.2062	1214.1
x2 = 0.349	1224.9
x2 = 0.3949	1229.1
x2 = 0.4647	1235.6
x2 = 0.5209	1241.8
x2 = 0.5872	1249.6
x2 = 0.6304	1255.3
x2 = 0.8222	1285.6
x2 = 0.8767	1296.3
x2 = 0.8816	1297
x2 = 0.9332	1307.6
x2 = 0.9429	1308.9

ClCCCl + CCCC[n+]1ccc(C)cc1.F[B-](F)(F)F
x1 = 1
Conditions	mass density [kg/m3]
298.15 K	1245.4
318.15 K	1216.2

CCCC[n+]1cccc(C)c1.F[B-](F)(F)F + ClCCCCCl
Conditions	mass density [kg/m3]
318.15 K, x2 = 0	1169.4

ClCCCl + CCCC[n+]1ccccc1C.F[B-](F)(F)F
x1 = 1
Conditions	mass density [kg/m3]
298.15 K	1245.4
318.15 K	1216.2

CCCC[n+]1cccc(C)c1.F[B-](F)(F)F + ClCCCl
mass density [kg/m3]
Conditions	298.15 K	318.15 K
x2 = 0	1183.2	1169.4
x2 = 0.1002	–	1172.6
x2 = 0.1907	1190.2	–
x2 = 0.209	–	1176.6
x2 = 0.2999	–	1180.3
x2 = 0.323	1196.2	–
x2 = 0.4167	1201.5	–
x2 = 0.5198	–	1191.6
x2 = 0.6035	–	1196.7
x2 = 0.703	1222.6	–
x2 = 0.7057	–	1203.6
x2 = 0.7424	1226	–
x2 = 0.7856	1230.2	–
x2 = 0.8182	–	1211.6
x2 = 0.8256	1234.1	–
x2 = 0.8594	1237.3	–
x2 = 0.8865	–	1216.4
x2 = 0.8915	1240.3	–
x2 = 0.9239	1243.1	–
x2 = 0.9289	–	1218.2
x2 = 0.9508	–	1218.7
x2 = 0.9773	1246.1	–
x2 = 0.9777	–	1218.5

CCCC[n+]1ccc(C)cc1.F[B-](F)(F)F + ClCCCl
Conditions	mass density [kg/m3]
298.15 K, x2 = 0.1992	1190
298.15 K, x2 = 0.3028	1194.6
298.15 K, x2 = 0.4492	1202.5
298.15 K, x2 = 0.5132	1206.5
298.15 K, x2 = 0.642	1216.2
298.15 K, x2 = 0.6913	1220.3
298.15 K, x2 = 0.7412	1224.9
298.15 K, x2 = 0.7845	1228.9
298.15 K, x2 = 0.826	1233
298.15 K, x2 = 0.8579	1236.3
298.15 K, x2 = 0.8921	1239.4
298.15 K, x2 = 0.9228	1242.5
298.15 K, x2 = 0.9504	1244.7
318.15 K, x2 = 0	1169.3
318.15 K, x2 = 0.2081	1176
318.15 K, x2 = 0.292	1179.3
318.15 K, x2 = 0.3709	1182.6
318.15 K, x2 = 0.4395	1186.1
318.15 K, x2 = 0.5069	1189.7
318.15 K, x2 = 0.5799	1194.2
318.15 K, x2 = 0.6337	1197.6
318.15 K, x2 = 0.6867	1201.4
318.15 K, x2 = 0.7357	1204.9
318.15 K, x2 = 0.7787	1208.1
318.15 K, x2 = 0.8648	1214.4
318.15 K, x2 = 0.8799	1215.3
318.15 K, x2 = 0.9241	1217.7
318.15 K, x2 = 0.9545	1218.6
318.15 K, x2 = 0.9775	1218.4

CCCC[n+]1ccccc1C.F[B-](F)(F)F + ClCCCCCl
mass density [kg/m3]
Conditions	x2 = 0	x2 = 0.1059	x2 = 0.1102	x2 = 0.2048	x2 = 0.3085	x2 = 0.4073	x2 = 0.5173	x2 = 0.5927	x2 = 0.6068
298.15 K	1201.7	1198.8	–	1195.7	1191.9	1187.6	–	1176.7	–
318.15 K	–	–	1184.7	–	–	–	1165.8	–	1159.4

ClCCCCl + CCCC[n+]1ccccc1C.F[B-](F)(F)F
x1 = 1
Conditions	mass density [kg/m3]
298.15 K	1180.1
318.15 K	1155

CCCC[n+]1ccc(C)cc1.F[B-](F)(F)F + ClCCl
298.15 K
Conditions	mass density [kg/m3]
x1 = 0.0164	1313.8
x2 = 0	1183.1
x2 = 0.0927	1188.3
x2 = 0.2085	1195.7
x2 = 0.2914	1201.9
x2 = 0.3995	1211.5
x2 = 0.4917	1221.4
x2 = 0.6312	1240.1
x2 = 0.774	1265.4
x2 = 0.8127	1273.4
x2 = 0.84	1279.6
x2 = 0.8969	1293.3
x2 = 0.94	1304
x2 = 0.9582	1308.3

— a compilation of properties of binary mixtures (doi:10.1021/jp510884t)
